Laboratory results from the BET-seq Pho4 binding data (Le et al. 2018).
The other results are listed elsewhere or left out. These are noisy estimates, calculated here from bound and input reads.

target: T1, Pho4 (S. cerevisiae) (UniProt P07270); assay: relative binding free energy (BET-seq); higher = weaker binding; details: reference: library average
T1 sequence: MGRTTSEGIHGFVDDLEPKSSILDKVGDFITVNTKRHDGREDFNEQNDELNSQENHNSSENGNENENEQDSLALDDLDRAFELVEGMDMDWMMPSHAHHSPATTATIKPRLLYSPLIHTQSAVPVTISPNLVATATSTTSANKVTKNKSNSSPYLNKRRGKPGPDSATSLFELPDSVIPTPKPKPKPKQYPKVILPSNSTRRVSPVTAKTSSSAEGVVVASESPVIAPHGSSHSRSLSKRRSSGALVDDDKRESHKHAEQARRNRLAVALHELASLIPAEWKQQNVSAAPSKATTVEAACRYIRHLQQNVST

Relative binding free energy, -0.13 kcal/mol:
TCTGGCACGTGGTGTT
GTCACCACGTGGGTGT
GCGAACACGTGGGGGT

Relative binding free energy, 0.38 kcal/mol:
GAGGTCACGTGAGTAA
CGCTTCACGTGTAGGT

Relative binding free energy, -0.2 kcal/mol:
TGTAGCACGTGGCCGT
AAGAGCACGTGTGGTA
CTCGGCACGTGGTAGT

Relative binding free energy, -0.32 kcal/mol:
GTGGGCACGTGGTCGA

Relative binding free energy, 0.3 kcal/mol:
AATGTCACGTGAGATA

Relative binding free energy, 0.25 kcal/mol:
AGAGTCACGTGTTCTG
ATGTTCACGTGAGGCA
GTCGACACGTGTCAGG

Relative binding free energy, 0.2 kcal/mol:
AGTTCCACGTGAGTGT
ATTTCCACGTGAGGTT

Relative binding free energy, -0.14 kcal/mol:
TAGCGCACGTGCGGTT
AGATGCACGTGGGTTT
ATGGGCACGTGGAGCT
TTCGGCACGTGGGAGA
CGGCGCACGTGGCGGT
GGTTGCACGTGCTCGG

Relative binding free energy, 0.19 kcal/mol:
ATTGTCACGTGTCTTT
GATGGCACGTGAGTAG
TGTCTCACGTGGAAGG

Relative binding free energy, 0.11 kcal/mol:
AGAGTCACGTGGAGGT
TTTTTCACGTGTGACA

Relative binding free energy, 0.1 kcal/mol:
GTAGTCACGTGTTTGG
TGCGTCACGTGTGTAT
GGCGTCACGTGTGGGT
TCGGTCACGTGGACGT
AAGGTCACGTGGATTG

Relative binding free energy, 0.13 kcal/mol:
GGGGTCACGTGTAGCG
GTGGTCACGTGCAATG
TGTGTCACGTGCTAAT

Relative binding free energy, -0.12 kcal/mol:
AGAGTCACGTGGGTTC
AGGTGCACGTGGGCTT
TGTGCCACGTGTGCGG
GGCGACACGTGGGTAG
ACTTGCACGTGGTGGA

Relative binding free energy, -0.17 kcal/mol:
GTCGGCACGTGGGTGC
CTGCGCACGTGTAGGT
TGGGGCACGTGGGCGC

Relative binding free energy, -0.01 kcal/mol:
TAATACACGTGGTTTA
GATAGCACGTGGTTAT

Relative binding free energy, 0.22 kcal/mol:
ATTCTCACGTGCTGGG
CGGTTCACGTGAAAGG
TGGTTCACGTGTCGCG

Relative binding free energy, 0.26 kcal/mol:
GTGTTCACGTGTGTGC
TATATCACGTGTTGGA
GGTTGCACGTGAAGCG
TTGTACACGTGCAGTT
ATGCTCACGTGGGATG

Relative binding free energy, 0.31 kcal/mol:
GGATTCACGTGCGGGT
TAGTTCACGTGTGCAT
TGTAACACGTGAAGTT

Relative binding free energy, -0.27 kcal/mol:
CGTGGCACGTGCAGTG

Relative binding free energy, -0.16 kcal/mol:
ATAGCCACGTGGTGCG
AACGACACGTGGGGGT

Relative binding free energy, -0.22 kcal/mol:
TGTGGCACGTGCTGTA
GGAGGCACGTGGGAGC

Relative binding free energy, 0.21 kcal/mol:
TTTTTCACGTGTATAT

Relative binding free energy, 0.29 kcal/mol:
GGCGGCACGTGAATGG
GAGCTCACGTGTATGT

Relative binding free energy, 0.23 kcal/mol:
GGTTTCACGTGCGATG
TTTAGCACGTGAAGTT
TTTTACACGTGTAGTA
GTGTTCACGTGTATAG
ATCTGCACGTGAGAGG
GATTGCACGTGATGGT
GAATGCACGTGAGTGG

Relative binding free energy, -0.25 kcal/mol:
TGTAGCACGTGCTTGG

Relative binding free energy, -0.08 kcal/mol:
CTTTGCACGTGTGGTC
TAGTGCACGTGGCAGA
GAAGGCACGTGATAGG
AGGAGCACGTGTGCGG

Relative binding free energy, 0.09 kcal/mol:
AGTTGCACGTGTTGGC
TTTGTCACGTGGTTTC
CCTTTCACGTGTGTTT
GTAGACACGTGTGTGC

Relative binding free energy, 0.12 kcal/mol:
CGTTTCACGTGCGCGG
GGAGTCACGTGGTTAG
TGTCACACGTGTTGTA
GTTATCACGTGTTAAA

Relative binding free energy, -0.19 kcal/mol:
ATGGGCACGTGGGCTT
TGAGGCACGTGGTGGG

Relative binding free energy, -0.1 kcal/mol:
GAGCGCACGTGCGGGT
CCGGGCACGTGTTGGG
GTATGCACGTGCGTCT
AAGTGCACGTGGCTGA

Relative binding free energy, 0.45 kcal/mol:
GTATTCACGTGAGTGT

Relative binding free energy, 0.08 kcal/mol:
CGGTACACGTGCGTGT
TGATACACGTGGTTGC
CGGGGCACGTGTTGGC
GGTGCCACGTGTATTT
TAGTGCACGTGTAGTC
GGTGTCACGTGTCTTA
AGTTACACGTGGAGTG

Relative binding free energy, 0.32 kcal/mol:
TTTTACACGTGTAAGC
TTACTCACGTGAGGGG

Relative binding free energy, -0.06 kcal/mol:
GAAGCCACGTGGTGTG
ATGTGCACGTGGAGGT
ATTTACACGTGGCTGG
GGTTGCACGTGGGGTC
AGGGACACGTGCGTGA
AGCAGCACGTGCGGGG
TAGGACACGTGGGATG

Relative binding free energy, -0.07 kcal/mol:
AGCGGCACGTGGGGAC
GCAAGCACGTGTGGTG
GGGTGCACGTGGCGTG

Relative binding free energy, 0.15 kcal/mol:
TAGGTCACGTGTCTTT
TGTCTCACGTGATGGC
GATTACACGTGGGCAG
AGGGTCACGTGTGACT

Relative binding free energy, 0.48 kcal/mol:
TAGTTCACGTGAGGGG

Relative binding free energy, 0 kcal/mol:
TATCACACGTGTAGTG
AATCGCACGTGGAGTG
AAGGACACGTGCGGTT
GACGGCACGTGTGGGT
GCGATCACGTGGGGTT
TTGATCACGTGGGGAG

Relative binding free energy, -0.23 kcal/mol:
CGGGGCACGTGGCATG
CTTGGCACGTGGGCTT

Relative binding free energy, 0.43 kcal/mol:
GGAATCACGTGATGTA

Relative binding free energy, 0.33 kcal/mol:
TAGTTCACGTGGTAAT
TGGTTCACGTGCGACG

Relative binding free energy, -0.24 kcal/mol:
AGAAGCACGTGGGGGC
GGCTGCACGTGGGTTA

Relative binding free energy, -0.04 kcal/mol:
TGACGCACGTGTGATG
TTGGCCACGTGTGGCT
CTCGGCACGTGGCGGT
AGGGACACGTGGATGT
TGTGCCACGTGATCGG
ATCGTCACGTGGGTCG

Relative binding free energy, 0.5 kcal/mol:
AAATTCACGTGAAGTT

Relative binding free energy, -0.29 kcal/mol:
ACGGGCACGTGGGTTC

Relative binding free energy, 0.05 kcal/mol:
GTGTGCACGTGATCGT
CGATTCACGTGGATGG
ATATGCACGTGAGCGG
TTTTACACGTGCATTT

Relative binding free energy, -0.05 kcal/mol:
TTGGTCACGTGGTACA
GGAGACACGTGTCGGT
ACTGACACGTGGGAGT
TTAAGCACGTGGCGGC

Relative binding free energy, 0.16 kcal/mol:
TACATCACGTGTGGGT
TGAATCACGTGGATTT
AGGGTCACGTGTTACG

Relative binding free energy, 0.14 kcal/mol:
ACGAACACGTGTGGGT
TGTATCACGTGGAGAG
GTGGTCACGTGACGCG
TTGGTCACGTGGACGT
GTCGGCACGTGCTTTT

Relative binding free energy, 0.04 kcal/mol:
TAGTCCACGTGTTTAT
CATTGCACGTGTAGGT
TACAGCACGTGGAGTT
CTTGGCACGTGAGGTT
GTGATCACGTGTGGCG
TGTGTCACGTGGATAC

Relative binding free energy, 0.03 kcal/mol:
TGGTACACGTGTTAAT
TAGTGCACGTGCTTTT
GATTGCACGTGGGAAT
ATATGCACGTGTTGAC
TCGGGCACGTGTAGGC
GTCGGCACGTGTAAGG

Relative binding free energy, 0.06 kcal/mol:
TTGATCACGTGGGGCG
ATAATCACGTGGGTTC
TATGGCACGTGTGACT

Relative binding free energy, -0.02 kcal/mol:
TCTTGCACGTGGTGGC

Relative binding free energy, 0.27 kcal/mol:
TTTCTCACGTGGGAGG
TTGTTCACGTGTGCTG

Relative binding free energy, 0.07 kcal/mol:
TGAGTCACGTGTGTCG
TCGAGCACGTGTGGAA
AAATGCACGTGTGAAG
TCGGTCACGTGGGAGA
ATAATCACGTGTTGGA
GTTGGCACGTGTCGCT
TGTAGCACGTGTGGTT
TTGATCACGTGTTCTG

Relative binding free energy, -0.03 kcal/mol:
GTTCACACGTGGGTCG
ATAGACACGTGTGGGA
TTTTGCACGTGCCTTT
TTATGCACGTGGTATT
GTGGCCACGTGTGTTG
ATATGCACGTGGAGTG
CATGTCACGTGGGCGG

Relative binding free energy, -0.09 kcal/mol:
TGGACCACGTGTTGGA
TTGAGCACGTGTCGTG
TTACGCACGTGGTTCG
TGGGACACGTGCCGTG

Relative binding free energy, 0.34 kcal/mol:
ATTTTCACGTGAAGGC
TGGTACACGTGAAGGT
TCTTTCACGTGTGTAT
TGACTCACGTGGAGTA

Relative binding free energy, 0.61 kcal/mol:
GAAATCACGTGAGGCA

Relative binding free energy, 0.24 kcal/mol:
GTCGTCACGTGTATGG
GAGTTCACGTGGTTAG
TTTGACACGTGAAAAG
AATTTCACGTGGTGTT
TGTAGCACGTGAACGG

Relative binding free energy, 0.37 kcal/mol:
CATGTCACGTGATTAG
AAGTTCACGTGCGGGG

Relative binding free energy, 0.01 kcal/mol:
CTAGACACGTGGTTTT
TACGTCACGTGGTGGA
ATGGGCACGTGTGGTT

Relative binding free energy, 0.28 kcal/mol:
GTTATCACGTGGACTA
TCTGGCACGTGAAGTT

Relative binding free energy, -0.36 kcal/mol:
TGTGACACGTGGGCAG

Relative binding free energy, 0.17 kcal/mol:
GATGTCACGTGTGGCT
CGGGTCACGTGTAAGT

Relative binding free energy, 0.35 kcal/mol:
GGTTACACGTGAGCTG
TGCTTCACGTGGAATT
CGTATCACGTGAGTGG

Relative binding free energy, -0.18 kcal/mol:
TGTTGCACGTGGGGCC

Relative binding free energy, -0.15 kcal/mol:
ATAAACACGTGGTGGG

Relative binding free energy, 0.02 kcal/mol:
GCGGACACGTGTTGGT
TTCTACACGTGTTATA
ATTTGCACGTGTCTAG
GAGGGCACGTGTGCAT
GTCGGCACGTGTGTTA

Relative binding free energy, -0.11 kcal/mol:
CGTGACACGTGGTCGT
TTATGCACGTGTTTAG
ATTTGCACGTGGACTT

Relative binding free energy, 0.18 kcal/mol:
AGTATCACGTGCTGGT
GAGTACACGTGGAGTT
TGTATCACGTGTAGCG
AGTTGCACGTGAAGTG
TAGTTCACGTGTTGCG
AGCATCACGTGTAAGG
GTTGTCACGTGGTAAA
AGTTGCACGTGACAGG
GGTGTCACGTGTTGTG
